Measurements published in PubChem BioAssay AID624171 (National Center for Advancing Translational Sciences (NCATS), 2012).
Hit rate of the full screen: of about 410,000 compounds, about 1,200 (0.29%) were called active. Inconclusive results, whose numbers are uncertain, are shown with a selection of clear calls. The call rests on the fitted dose curve; in most records, active means well fitted activation curve with a large enough effect; inconclusive means small, poorly fitted or top-dose-only effect; inactive means flat fitted curve, though single readings scatter. Potencies of inconclusive entries are doubtful fits and often do not repeat.

assay: qHTS of Nrf2 Activators; settings: AREc32 ARE-luciferase reporter (MCF7-derived line), luminescence, 24 h; activation: at 46.1 µM (top of the series); further: nearly all actives have a fitted effect of over 65% in size; on activation: % of control where 0% means no effect
Outline: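 For detection, Steady-Glo was added and plates sat 30 min at RT; before that, AREc32_Fluc cells grown overnight in OPTI-MEM/5% FBS had been treated with 23 nL compound for 24 hr at 37 deg C.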
Potency means the concentration at half of the fitted maximal effect; tags describe the fitted curve by direction and shape.

Potency, inconclusive:
C(=C\c1ccco1)/c1nc2ccccc2[nH]1 0.562 µM [activator, full curve, poor fit]
c1ccc(C2Oc3ccccc3C3CC(c4cccs4)=NN32)cc1 (stereo not drawn) 15.8 µM [activator, partial curve, poor fit]
CC(=O)Nc1ccc2c(=O)n(-c3ccccc3)sc2c1 35.5 µM [activator, partial curve, poor fit]
FC(F)(F)c1ccccc1Cc1c(-c2ccco2)nc2ccc(Cl)cn12 14.1 µM [activator, single point]
Cc1ccccc1NC(=O)/C=C/c1cccs1 20 µM [activator, single point]
O=C(Cn1ccc(C(F)(F)F)n1)N=Nc1c(O)[nH]c2ccc(Br)cc12 11.2 µM [activator, partial curve]
Brc1ccc2nc(-c3cccs3)c(NCC3CCCO3)n2c1 (stereo not drawn) 11.2 µM [activator, partial curve, poor fit]
Cc1nnc(NC(=O)c2c(F)c(F)c(F)c(F)c2F)s1 17.8 µM [activator, single point]
COc1cccc(NC(=O)C(OC(=O)c2ccc([N+](=O)[O-])o2)c2ccccc2)c1 (stereo not drawn) 15.8 µM [activator, single point]
CCn1c(C)nc([N+](=O)[O-])c1Sc1ccc(F)cc1 35.5 µM [activator, single point]
Cc1ccc(O)c(C=Nc2cc(C)ccc2O)c1 22.4 µM [activator, single point]
C(=N\Nc1nc2ccccc2[nH]1)/c1c[nH]c2ccccc12 2.82 µM [activator, full curve, poor fit]
O=C(/C=C/c1ccccc1)c1ccccc1O 12.6 µM [activator, partial curve]
CCc1ccc(NC(=O)CSC2=C(C#N)C(c3ccco3)C3=C(CCCC3=O)N2)cc1 (stereo not drawn) 31.6 µM [activator, single point]
O=C(COC(=O)/C=C/c1ccco1)NCc1ccc(Cl)cc1Cl 22.4 µM [activator, single point]
Cc1c(C(=O)NCc2ccco2)oc2c(Cl)cccc12 3.55 µM [activator, partial curve, poor fit]
COc1ccc(C2(CNC(=O)/C=C/c3ccco3)CCCC2)cc1OC 15.8 µM [activator, single point]
Cc1noc(C)c1-c1ccc(C(=O)NCc2ccco2)c2occc12 15.8 µM [activator, partial curve, poor fit]
Cc1nc(-c2cccc(NC(=O)c3cccs3)c2)cs1 17.8 µM [activator, single point]
COc1ccccc1C(=O)Nc1sc(Nc2ccccc2)nc1C(N)=O 1.12 µM [activator, full curve, poor fit]
CCc1nnc(NC(=O)c2nc(Cl)ccc2Cl)s1 14.1 µM [activator, partial curve, poor fit]
Cc1ccc(/C=C(\C#N)C(=O)Nc2cccc(Br)c2)o1 14.1 µM [activator, partial curve, poor fit]
O=c1c2ccccc2oc2c1oc1ccccc12 14.1 µM [activator, partial curve, poor fit]
COc1ccc(C(=O)/C=C/c2cn(CN3CCN(C)CC3)c3ccccc23)cc1 20 µM [activator, single point]
Cc1ccc(Sc2nc(C)c([N+](=O)[O-])c(C)c2C#N)cc1 28.2 µM [activator, single point]
Nc1ncnc(Sc2ccc(Cl)cc2)c1[N+](=O)[O-] 8.91 µM [activator, partial curve]
COc1ccc([N+](=O)[O-])cc1NC(=O)CC(c1ccccc1)c1ccccc1 15.8 µM [activator, single point]
Cc1cc(C)cc(NC(=O)c2ccc([N+](=O)[O-])o2)c1 5.62 µM [activator, single point]
CN(C(=O)COC(=O)/C=C/c1ccc2ccccc2n1)C1CCS(=O)(=O)C1 (stereo not drawn) 12.6 µM [activator, single point]
COc1cc(C(=O)N/N=C/c2sc(=O)n(-c3ccccc3)c2Cl)cc(OC)c1OC 17.8 µM [activator, single point]
CCS(=O)(=O)c1oc(-c2ccc(F)cc2)nc1S(=O)(=O)c1ccccc1 3.16 µM [activator, single point]
O=C(Nc1ccccn1)C1CCN(S(=O)(=O)c2ccc3c(c2)OCCO3)CC1 17.8 µM [activator, single point]
Fc1ccc(C2=CC(c3ccco3)n3ncnc3N2)cc1 (stereo not drawn) 5.62 µM [activator, single point]
Fc1ccc2nc(Nc3ccccc3)sc2c1 11.2 µM [activator, partial curve, poor fit]
CC(=O)Nc1cc(-c2ccoc2)cn2c(-c3ccccc3)cnc12 17.8 µM [activator, partial curve, poor fit]
CC(C)c1c(C(=O)N/N=C/c2cccs2)nnn1-c1nonc1N 14.1 µM [activator, partial curve, poor fit]
COC(=O)c1ccccc1NC(=O)c1sc(Cl)nc1C 22.4 µM [activator, single point]
O=C(N=C1SCC(=O)N1c1ccccc1Cl)c1ccco1 17.8 µM [activator, single point]
CCOc1ccc(/C=C/C2=Cc3c(sc(NC(=O)CSc4n[nH]c(N)n4)c3C#N)C(C)(C)C2)cc1 5.62 µM [activator, single point]
Cc1cc(-c2[nH]nc3c2C(c2ccsc2)C(C#N)=C(N)O3)c(C)s1 (stereo not drawn) 31.6 µM [activator, single point]
Cc1ccc(Cc2c(-c3ccco3)nc3c(C)cc(Br)cn23)cc1 3.98 µM [activator, full curve]
CC(C)(C)c1csc(N/N=C/c2ccc(O)cc2)n1 11.2 µM [activator, partial curve]
N#Cc1c(-c2ccc(F)cc2)cc(-c2cccs2)nc1SCC(=O)O 12.6 µM [activator, single point]
CCN1CCN(c2ccc(S(=O)(=O)N3CCCCC3)cc2NC(=O)/C=C/c2ccc([N+](=O)[O-])cc2)CC1 17.8 µM [activator, single point]
O=C(NCc1ccco1)c1ccccc1-c1nc(-c2ccccc2)no1 2.82 µM [activator, full curve, poor fit]
CC(Nc1c([N+](=O)[O-])c(=O)oc2ccccc12)C(Cl)c1ccccc1 (stereo not drawn) 22.4 µM [activator, single point]
O=C(N/N=C/C=C/c1ccco1)c1cccs1 12.6 µM [activator, partial curve, poor fit]
COc1ccc(Cl)cc1C(=O)O/N=C(\N)c1ccccn1 5.62 µM [activator, full curve, poor fit]
Cc1cc2c(n1-c1ccc(C(=O)NCc3ccccc3Cl)cc1)CCCC2 22.4 µM [activator, single point]
O=C(CSc1ccc(-c2ccco2)nn1)NC1CCCCC1 12.6 µM [activator, single point]
COc1ccccc1CN1C(=O)c2cccc3cccc(c23)C1=O 15.8 µM [activator, single point]

Potency, active:
c1ccc(-c2nc(-c3ccncc3)no2)cc1 11.2 µM
CN(N=Cc1ccccc1O)c1ccc2ccccc2n1 4.47 µM
O=C(N/N=C/C(Br)=C/c1ccccc1)C1CC1 20 µM
O=C(Nc1ccccc1Cl)c1cc2ccccc2o/c1=N\O 1.26 µM
O=C(N/N=C/C(Cl)=C/c1ccccc1)c1ccncc1 22.4 µM
Brc1ccsc1-c1csc(-c2ccncc2)n1 12.6 µM

activation, inactive:
Cc1cc(C)nc(SCC(=O)N2CCc3ccccc32)n1 0.0116%
S=C(Nc1ccc(Nc2ccccc2)cc1)Nc1ccccn1 3.09%
CC1(C(=O)NS(=O)(=O)C2CC2)CCN(C(=O)c2cccc(OC(F)(F)F)c2)C1 (stereo not drawn) 0.197%
Cc1nc2c(OCc3ccc(Cl)cc3Cl)cccn2c1N(C)Cc1cccs1 0.253%
Nc1ccc(-c2cc3ccccc3c(=O)o2)cc1 5.98%
CCOC(=O)N1CCN(Cc2ccc(O)c3ncccc23)CC1 7.43%
Cc1ccc(N2C(=O)C3C4C=CC(C4)C3C2=O)cc1 (stereo not drawn) -0.2%
COc1ccc(OC)c(NS(=O)(=O)c2ccc(N3CCCCS3(=O)=O)cc2)c1 -0.945%
CC(=O)Oc1ccc2c(C)cc(=O)oc2c1C(=O)c1ccccc1 -1.22%
O=C(CSc1cn(CCNC(=O)c2cccc(C(F)(F)F)c2)c2ccccc12)Nc1ccc2c(c1)OCCO2 -0.73%
c1ccc(OCCn2cnc3ccccc32)cc1 0.444%
COc1ccc(NC2=C(c3ccccc3)C(=O)c3ccccc32)cc1Cl 14.1%
CCCS(=O)(=O)N1CCN=C1SCc1ccc(C)cc1 0.291%
CCCCN(CC)C(=O)c1nn(-c2ccc(OC)cc2)c(=O)c2c1c1ccccc1n2C 8.77%
O=S(=O)(c1cccc2ccccc12)N1CCN(c2ccc(Cl)c(Cl)c2)CC1 -1.33%
Cc1cc(Nc2cccc(C(F)(F)F)c2)nc2ccc(NC(=O)c3cccc(Cl)c3)cc12 -2.31%
Cc1cc(-c2ccc(C(C)C)c(S(=O)(=O)N3CCN(c4ccccn4)CC3)c2)on1 -0.122%
COc1cc2c(cc1OC)CN(C(=O)CCOc1ccccc1C)CC2 0.14%
CSc1nc(N)nc2c1ncn2CC(=O)Nc1ccc(C)c(C)c1 1.22%
COc1ccc(CNC(=O)c2ccncc2)cc1 0.171%
O=C(CN1C(=O)c2cccnc2Oc2ccc(Cl)cc21)Nc1cccc(C(F)(F)F)c1 0.0373%
